# Among all 190,000 compounds or so, about 400 (0.21%) were called active. The inconclusive results got no clear call from the source; some entries with a clear call stand among them for comparison.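 How the source made its calls: active means percent activity GTP binding at least 20 points away from the 100% baseline, either down as inhibitor or up as activator; inconclusive means compound flagged as likely green fluorescent from well-wide comparison; inactive means the rest.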
# Biological target: Cell division control protein 42 homolog (Homo sapiens) (UniProt P60953)
# Assay: wildtype Cdc42 fluorescent GTP binding changes, either direction – biochemical, multiplex bead flow cytometry, Bodipy-GTP, primary screen (AID 761);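 further: median bead fluorescence of bound Bodipy-FL-GTP at 100 nM; 0% = excess unlabeled GTP control and 100% = no compound control; below 100% means less GTP binding so inhibitor and above means activator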
# Conditions: GST-Cdc42 beads, at 10 µM, actives lie on both sides
# UniProt P60953, sequence (P60953 whole entry, looked up): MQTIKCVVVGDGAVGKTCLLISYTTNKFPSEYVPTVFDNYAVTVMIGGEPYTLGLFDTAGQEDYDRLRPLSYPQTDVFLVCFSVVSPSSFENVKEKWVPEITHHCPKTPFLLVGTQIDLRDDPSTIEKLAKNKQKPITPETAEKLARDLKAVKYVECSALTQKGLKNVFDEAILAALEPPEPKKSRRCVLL
row,Compound,percent activity (GTP binding)
1,O=C(O)CC/C(=C\c1ccc(N2CCCC2)c([N+](=O)[O-])c1)c1nc2ccccc2s1,active: 75%
2,CC(C(=O)NN=C(c1ccccc1)c1ccccc1)N1CCCC1 (centres undefined),inconclusive: 94%
3,Cc1cc(=O)oc2c3c4c(cc12)OCCN4CCC3,inconclusive: 94%
4,COc1ccc(NC(=O)CCN2CCN(S(=O)(=O)c3ccc(Cl)cc3)CC2)cc1,inconclusive: 93%
5,FC(F)(F)c1cccc(Oc2nc(-c3ccccc3)nnc2C(F)(F)F)c1,inconclusive: 104%
6,CCCOc1ccc(N2C(=O)CC(N(O)c3ccccc3)C2=O)cc1 (centres undefined),inconclusive: 106%
7,CCOC(=O)C1=C(CSc2nncn2C)NC(=O)NC1c1cc(OCC)ccc1OCC (centres undefined),inconclusive: 86%
8,CCc1ccc(NC(=O)C(C)OC(=O)C2CCC(=O)N2)cc1 (centres undefined),inactive: 103%
9,COc1cc2c(cc1NC(=O)COC(=O)/C=C/c1ccccc1)oc1ccccc12,inconclusive: 90%
10,COC(=O)CSC1=C(C#N)C(c2ccccc2OC)C(C(=O)OC)C(=O)N1 (centres undefined),inconclusive: 87%
11,O=C(CCc1ccccc1)Nc1ccc2ccccc2n1,inactive: 90%
12,COc1cccc(/C=N/n2c(N)c(S(=O)(=O)c3cccs3)c3nc4ccccc4nc32)c1,inconclusive: 80%
13,O=C(N1CCCC1)C12CCC3CC(CC(C3)C1)C2,inactive: 106%
14,Cc1cccc(CN2C(=O)N/C(=C/c3ccc(C)s3)C2=O)c1,inconclusive: 117%
15,CC(=O)Nc1sc(/C(C#N)=C/c2ccc(Cl)c(Cl)c2)nc1-c1ccc(C)cc1,inconclusive: 105%
16,COCCCNCC(O)COc1ccccc1F (centres undefined),inactive: 97%
17,CC(=O)N1/C(=C/c2ccc(N(C)C)cc2)C(=O)c2ccccc21,inactive: 92%
18,COc1cc(C)c2c(c1C=O)Oc1c(c(C)c(O)c3c1C(O)OC3=O)OC2=O (centres undefined),active: 78%
19,CCN(CC)c1nc(N)c2c(N)n(-c3ccccc3C)c(=S)c(C#N)c2c1C#N,inconclusive: 93%
20,Cc1ccc(OCc2ccc(C(=O)O)o2)c([N+](=O)[O-])c1,inactive: 99%

row,Compound,percent activity (GTP binding)
1,Cc1c(O)ccc(NC(=O)/C=C/c2ccccc2)c1C,inactive: 92%
2,Cc1cc(C)c(C)c(C(=O)c2ccccc2C(=O)O)c1C,active: 132% [activator]
3,Oc1c(C=Nc2cccc3cccnc23)sc2ccccc12,inconclusive: 117%
4,Cc1nc2c(Cl)cc(Cl)cc2[nH]1,inconclusive: 106%
5,O=C(CSc1nc(-c2ccccc2Cl)ns1)Nc1ccc2c(c1)OCO2,inconclusive: 92%
6,Cc1ccc2[nH]c(=O)c(CN(Cc3ccc4c(c3)OCO4)Cc3nnnn3Cc3ccco3)cc2c1,inconclusive: 97%
7,COc1ccc(CN(C)Cc2nc(Cc3cccc(F)c3)no2)c2cccnc12,inconclusive: 98%
8,NC(=O)CSc1ccc(-c2ccc(F)cc2)nn1,inactive: 95%
9,Cc1cc(Nc2ccc3c(c2)OCCO3)c2cc(Cl)ccc2n1,inconclusive: 104%
10,COc1ccc(NC(=O)COc2ccccc2C#N)c(S(=O)(=O)N2CCCCC2)c1,inconclusive: 108%
11,Cc1cc(-c2n[nH]c(=S)n2/N=C/C(Cl)=C/c2ccccc2)n[nH]1,inactive: 92%
12,C=CCn1c(-c2cc3cccc(OC)c3o2)n[nH]c1=S,inconclusive: 90%
13,CN(C)CCN(C(=O)c1ccc(N2C(=O)CCC2=O)cc1)c1nc2cc3c(cc2s1)OCO3,inconclusive: 105%
14,Cc1cccn2c(=O)c(/C=C3\SC(=S)N(CC(C)C)C3=O)c(NCCCOC(C)C)nc12,inconclusive: 125%
15,c1ccc(-c2onc3c2CCCC3)cc1,inconclusive: 717%
16,O=C(COc1ccc([N+](=O)[O-])cc1)Nn1cnnc1,inconclusive: 92%
17,O=C(Cc1cccs1)Nc1nnc(C2CC2)s1,inactive: 99%
18,CC(=O)NCCn1c(SCC(=O)OCc2ccccc2)nc2ccccc2c1=O,inconclusive: 104%
19,CCN1C(=O)C(CC(=O)Nc2ccc(F)cc2)N(CCc2ccc(OC)cc2)C1=S (centres undefined),inconclusive: 164%
20,CCOC(=O)c1c(NC(=O)CSc2ncnc3[nH]ncc23)sc2c1CCC(C)C2 (centres undefined),inconclusive: 93%

row,Compound,percent activity (GTP binding)
1,Cc1nc2ccccc2c(=O)n1N(c1ccccc1)c1ccccc1,inactive: 89%
2,CCOc1cc(/C=N/NC(=O)c2ccc(CN3CCOCC3)cc2)ccc1OC,inconclusive: 94%
3,COc1ccc(-n2c(N)c(C(=O)NCc3ccco3)sc2=S)cc1,inconclusive: 106%
4,O=C(Cn1c(=S)[nH]c2ccccc2c1=O)N1CCN(c2ccc(F)cc2)CC1,inactive: 95%
5,Cc1nnnn1CC(=O)Nc1cccc([N+](=O)[O-])c1,inactive: 96%
6,CC(C)c1nc2sc3c(=O)[nH]cnc3c2c2c1CCC2,inconclusive: 88%
7,COc1ccc(C(=O)NCCc2cc3ccc(C)c(C)c3[nH]c2=O)cc1OC,inconclusive: 90%
8,CCn1c(=N)c(C(=O)NCCCOC)cc2c(=O)n3cccc(C)c3nc21,inconclusive: 94%
9,CSc1ncccc1C(=O)OCC(=O)N1CCOCC1,inconclusive: 590%
10,FC(F)(F)c1ccccc1NC(=S)NC1CCN(Cc2ccccc2)CC1,inconclusive: 98%
11,O=S(=O)(Nc1cccc(-c2cn3cccnc3n2)c1)c1ccc(-c2ccccc2)cc1,inactive: 93%
12,Cc1cc(/C=N/NC(=O)C(=O)NCc2ccccn2)c(C)n1-c1cccc(Br)c1,inconclusive: 96%
13,Cc1nonc1-c1csc(N)n1,inactive: 96%
14,CSc1ccc(S(=O)(=O)Nc2ccc3c(c2)OCCO3)cc1,inconclusive: 102%
15,CC(C)c1[nH]nc2c1C1(CCN(Cc3ccccc3)CC1)C(C#N)=C(N)O2,inconclusive: 106%
16,CC1=C(C(=O)Nc2ccccc2)C(c2ccc(Cl)cc2)n2c(s/c(=C/c3cccc(OCC(=O)O)c3)c2=O)=N1 (centres undefined),inconclusive: 73%
17,COc1ccc(/C=N\NC(=O)CCc2c(C)n[nH]c2C)c(OC)c1OC,inconclusive: 104%
18,COc1cc2[nH]c(=S)nc(NC3CCCC3)c2cc1OC,active: 58%
19,Cc1ccc(S(=O)(=O)/N=C(\N)Nc2nc(C)c3ccccc3n2)cc1,inactive: 92%

# Source: PubChem BioAssay AID761 (NMMLSC, 2007)
